The source gives no read counts; variants with many changes may rest on few reads.
B1: LINE1-full (parent)
chain: UACGUAGGUGGUUUUCCCCUGAUAGUGCUAAGGGGGCCUGGAAGUUUGGACUGGGCAGAGCUCAACACAGCGUGGCAAAGUGGCUGUGGCUAGACUGCCUCUCUGGAUUCCUCGUCACUCAGCAGGGCAUCUCUGAGAGAAAUGCC

Variants of: B1
Test: self-cleavage, relative activity (ratio to wild type); higher = more cleavage; in vitro, sequencing; the parent is a self-cleaving ribozyme

Variant	self-cleavage
G36A U130C U134G	1.44
U73C U91C U102A	0.37
U20A A22U A43G U112C	0.7
U12G A79G C110G	2.7
U23C A50G A94G C128A	0
U14A A59G A136G	0.1
U46C U52A U62C	0.15
U39C A67U A124G	0.04
G72A U85G G89C A142G	0.06
U5C U12C A65U U91A U100C	0.7
U13C G32A A138G	0.67
A22U U29A U39C A57U A79G U81A U102C	0.09
G105A C111U G127U	1.23
U100C U132A A138G	2.95
G35C U39G U45A A141G	2.09
A22G U29C U91A	0.99
C38A C71U A117G U134C U143C	0.59
U13C U39A A42U A79U U85C U87G	0.19
U9C A24U G27A	0.96
C16U A67G A121C	0.82
C19A A65G G88A U102C	0.05
G10A A69G U132A	0.44
G36C A129G U132C	0
C76A A77G U96C	0.25

Variant	self-cleavage
U26C U39C G44U U62C	0.19
C71U U104C A107G	1.28
A2C U14C A136G	1.41
U15C U20A U96A C103U U109C A142G	0.06
C71U A117U U132C U143C	0.56
U47C A50U A129G	1.53
U14C G49A A79G U85C A94G U119C	0.92
A2C A78U U109G	1.21
U46A A59G U96A	0.05
U20C U73C C90A	0.12
U23A U29C A67U A77G	0.36
G4A U13C U20C A31G G97A	0.19
A6G C61U A64G U143C	0.09
U39C U85C A94U	0.14
U62C U73C U104C	0.27
U14C G60U U100C G127A	0.07
U5A A43G A64G A121G	0
U12C A31G G32A	1.31
A107G U109A A141G	1.75
U85A U112A U132C	0.03
U20C U26G U39A	1.99
U9A G54U A59U U81C U130C	0.24
A42G A57G G58A A65G C68U	0.14
C90A A94G U108A U109C	0.11

Variant	self-cleavage
U12C G32U A69G U108C	0.15
A31G A78G U87C A141G	0.14
A30G U100C A138G	2.51
U12G G34C A117U	0.5
A50U A77U A94G	0.17
U1C A22G A79U U91C G144A	1.02
A24U A42G U62C C120U A141G U143C	0
U14C A65U A138G	0.24
A50U G86A U96G A138G	0.08
U39C U130A U134C A140G	1.07
C37A A107G A142G	1.28
U85A U91A A107G C111U	0.1
U14A U15A A30G C128U	0.36
U23C G41A U45C A65G U102A	0.11
U5C A129G A142C	0.63
A50U A92G U134C	1.53
A67G A121U A138U	0.36
U15C A77G U102C	1.28
A24G G49U A50G A64U A77U U112C	0.14
U15C G21U G72A U102C U119C	1.67
U15C C37G A129G	1.31
A22G U102C U108C	0.44
G34U U52C G53U	1.17
A22G U96C A129U	0.1

Variant	self-cleavage
U13C U14C U130C	1.46
U15C A22U U115C	0.94
U9A U26A A57G U100C	2.42
U26A A69G A94G	0
A22G U115C A140G	0
U20C A107G A136G	1.2
A43G A94U C128U	0.18
A57G A79G A142G	0.42
C37A U47C A69U U73A A78G U108C	0
U14A U73C U130C	0.34
U9C U73A A124G	1.4
U13A A78G A124U A136G	1.21
U29A A31U G122U	1.01
U45A A107U A121U	1.5
U5C U14A G127C U134C A138G	1.56
U14C U73C A79G G126U	1.23
U73C U87C A140G	0
U39C C76U U87C	0.19
A2G G34U A117U U119A A124G A138G	1.51
U47A U52A A140G	0.93
U13C A59U A79G A141G	0.32
A31U A42U A77G A78U	1.79
U15A U20A G35A A42U U45G U96C A121G	0
A42G U62C U104C	0

Variant	self-cleavage
G36A A59G A78G U115A	0.08
U26C U108C A140G	1.34
U47A U100C U115A A141G	1.84
U14C A67U U104C A138G	0.28
G10U A24U U47C U112C	0.92
U39C U62C A141G	0
U13C A42U G54A	0.22
C18U A107G U112C A141G	2.3
U26A A42G A79G U81A	1.65
U39C A64U G82A A121U	0.3
U62A U96C A121U	0
U15C A24U U52A A121G	1.4
G36A A43G U130C A142G	1.29
A22G A43C U91A U102C	0.77
A31U G36A U46C U87C U100C U143A	0.44
C19U A117G A121U A140G	1.12
U52C U91C A140G U143A	0.57
U29C A94G U132A	0.23
U9A C68U A138G U143C	0.14
A67G U81C G93A	0.07
A6U U14C G33U A79G G83C	1.15
U9A U26A A107G U112C	0
U13C U15C G21A	1.77
U1C U9A G27A	0.79

Variant	self-cleavage
A22G U46A U62C U143G	0.07
A2G U85G A136U	0.14
U13A G33U A42G	1.43
U45C C71A U87C	0.05
U5C U15A C111U A138U	1.39
A22G G88U A142G	0
U13C U100C A107U	2
U46C A79G C103A	1.53
U1A G82A U85C	0.41
U9G U100A A129G	0.77
U29C U45C U87C	1.31
A42G U62C U119C	0
U15C U29A A94G	0
U1C U9C A22G C95U G97A	0.15
U73A U119A A129G	2.22
G58A G74A U119A	0.01
G74U A79G U104A	0.89
A22G A42G U73A U104C U132C	2.14
U13C U29C U143C	0.69
G7A U23C A142G	1.56
A57G A79U C123U G127U	0.84
U47C A77U U115A U132C	2.07
U87A U91C U115C	0
A6G G34U A67U A117G A141G	0.33

Variant	self-cleavage
U9C A64U U143C	0.78
A2G U12G A43G G82A	0.69
U1C G36C A129G U143G	0.38
U112C C131U A140G	1.89
A22U A59G U73C A142G	0.28
A77G U108C U130C	2.63
C37U U52C U119C U134C	1.86
A6G A79U U87A U104C	0.55
G53A U81C A138U A141G	2
U14C A78G U100A U108C A142G	0.3
U12A U45C U87C	0.31
U14A A59C U62C A142U	0
A43G U108C A117C	2.04
C19U U52C G86A A92U	0
U15A A65C U87A	0.17
G33A A117G A142G	0.6
G44U A78G U143C	1.17
A67G A94G G97A	0.05
A79G U104C C116U	1.42
U9C G80A U143A	1.41
U62A U87C U130A	0.09
A42G A43G U62C A136U	0
U12C U13C A117U U130C	1.19

From the RNAGym collection of RNA variant scans (doi:10.7554/elife.90254)
